Screen size: about 310,000 compounds; about 14,000 (4.5%) showed an effect of 50% or more. Effects have a minus sign here. The list shows a part of the results.
Biological target: human ether-à-go-go-related gene (hERG) potassium channel (human, UniProt Q12809)
Experiment: primary screen, population patch clamp on CHO cells stably expressing hERG
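Note: peak tail current of the secondary pulse compared with the same well before compound.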

Sequence of human ether-à-go-go-related gene (hERG) potassium channel (Q12809 whole entry, looked up): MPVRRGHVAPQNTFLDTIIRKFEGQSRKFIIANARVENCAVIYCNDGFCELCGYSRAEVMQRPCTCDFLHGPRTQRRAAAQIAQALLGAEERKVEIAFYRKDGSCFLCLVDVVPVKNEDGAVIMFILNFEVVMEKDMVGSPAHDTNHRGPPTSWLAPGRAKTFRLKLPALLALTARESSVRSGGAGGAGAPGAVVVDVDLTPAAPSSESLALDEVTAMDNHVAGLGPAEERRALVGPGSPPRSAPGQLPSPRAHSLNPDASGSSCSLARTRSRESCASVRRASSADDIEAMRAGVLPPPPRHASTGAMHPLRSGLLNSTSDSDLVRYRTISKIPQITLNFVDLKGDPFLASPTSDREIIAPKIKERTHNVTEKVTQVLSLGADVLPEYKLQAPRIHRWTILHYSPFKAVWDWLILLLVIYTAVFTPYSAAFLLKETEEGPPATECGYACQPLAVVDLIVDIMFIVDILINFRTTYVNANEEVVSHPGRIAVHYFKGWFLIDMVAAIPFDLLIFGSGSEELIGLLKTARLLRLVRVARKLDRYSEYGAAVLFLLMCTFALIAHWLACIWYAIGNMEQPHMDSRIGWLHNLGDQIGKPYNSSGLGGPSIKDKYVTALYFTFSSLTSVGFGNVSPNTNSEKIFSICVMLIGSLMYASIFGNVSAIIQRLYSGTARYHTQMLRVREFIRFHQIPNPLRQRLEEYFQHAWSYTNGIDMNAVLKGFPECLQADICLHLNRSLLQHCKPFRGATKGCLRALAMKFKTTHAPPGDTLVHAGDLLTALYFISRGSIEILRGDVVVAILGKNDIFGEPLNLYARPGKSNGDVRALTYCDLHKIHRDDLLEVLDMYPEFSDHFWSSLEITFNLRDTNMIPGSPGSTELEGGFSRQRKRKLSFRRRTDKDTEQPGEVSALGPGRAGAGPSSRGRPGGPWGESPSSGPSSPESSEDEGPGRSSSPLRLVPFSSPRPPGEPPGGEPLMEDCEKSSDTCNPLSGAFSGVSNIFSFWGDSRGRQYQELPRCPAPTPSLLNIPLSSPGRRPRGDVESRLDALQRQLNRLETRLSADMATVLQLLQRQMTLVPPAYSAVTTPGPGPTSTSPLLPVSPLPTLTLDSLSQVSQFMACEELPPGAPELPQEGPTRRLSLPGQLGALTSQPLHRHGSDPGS

Row | SMILES | hERG current change (%, negative = inhibition) at 10uM [%]
1 | COc1ccc(CCNC(=O)CCS(=O)(=O)c2ccc3c(c2)NC(=O)CS3)cc1OC | 4.12
2 | COC(=O)CN1C(=O)N(c2ccccc2)C(N(O)C(=O)Nc2ccccc2)C1(C)C (stereo not shown) | 3.63
3 | Cc1ccc(-c2nnn(CC(=O)N(Cc3cccs3)C(C(=O)NC3CCCC3)c3ccncc3)n2)cc1 (stereo not shown) | -13
4 | O=C(OCN1C(=O)c2ccccc2C1=O)c1cccc(OC(F)F)c1 | 11.9
5 | CCOc1ccccc1CN1CCN(CCCc2ccccc2)CC1CCO (stereo not shown) | -64.9
6 | N#CC1=C2SCN(c3ccccc3)CN2C(=O)CC1c1c(Cl)cccc1Cl (stereo not shown) | 3.11
7 | CCC1(c2ccc(F)cc2)NC(=O)N(CC(=O)N(CCC#N)c2ccccc2)C1=O (stereo not shown) | -3.58
8 | Cc1c(Cl)cccc1NCC(=O)NN=C1CCCC1 | 25.2
9 | CCN(Cc1ccncc1)C(=S)Nc1ccccc1 | -3.22
10 | COc1ccc(C)cc1S(=O)(=O)N(CC(=O)Nc1cccc([N+](=O)[O-])c1)c1ccc(C)c(C)c1 | -0.952
11 | Cc1noc(C)c1C(=O)N1CCc2ccccc21 | -0.274
12 | O=C(NCc1ccncc1)C1CCN(S(=O)(=O)c2cc(Cl)ccc2Cl)CC1 | -18.9
13 | O=C(Nc1nc(-c2nc3ccccc3s2)cs1)C1CC1 | 1.21
14 | CCOc1ccc2nc(NC(=O)CC3Oc4ccccc4NC3=O)sc2c1 (stereo not shown) | 8.37
15 | COc1ccccc1OCC(=O)Nc1ccc(N2CCOCC2)cc1N1CCOCC1 | -23.9
16 | C=CCNC(=O)C1CCN(c2nc(C)cc(-c3ccccc3)n2)CC1 | -51.3
17 | O=S(=O)(NC12CC3CC(CC(C3)C1)C2)c1ccc(F)cc1 | -6.37
18 | CNC(=O)/C(=C\C=C\c1ccccc1)NC(=O)c1ccc([N+](=O)[O-])cc1 | -77.6
19 | COCCNC(=S)N1CCN(c2nc(-c3ccc(F)cc3)cs2)CC1 | 11.6
20 | O=C(O)c1cccc(N2C(=S)N=C(Nc3ccccc3)C23CCCCC3)c1 | 1.22
21 | CNc1nc(NCCOC23CC4CC(CC(C4)C2)C3)nc(OCC(F)(F)F)n1 | 8.55
22 | COc1cccc(CC2(CO)CCCN(Cc3ccc(OC(F)F)cc3)C2)c1 (stereo not shown) | -68.6

Row | SMILES | hERG current change (%, negative = inhibition) at 10uM [%]
23 | Cc1cccc(N2CCN(C(=O)NC(C)c3ccc(F)c(F)c3)CC2)c1C (stereo not shown) | -13
24 | COc1ccc(C2/C=C\CN(C(=O)C3CCCC3)[C@H](Cc3ccccc3)C(=O)N2Cc2ccc(F)cc2)cc1 (stereo partly shown) | 12.8
25 | CCCC(O)(c1ccc(OC)cc1)C(CN1CCOCC1)c1ccc(Cl)cc1.Cl (stereo not shown) | -20.5
26 | CCOC(=O)N1CCN(S(=O)(=O)c2ccc(C(=O)N(CCCN(C)C)c3nc4ccc(Cl)cc4s3)cc2)CC1.Cl | -58.4
27 | COc1ccccc1Cn1c(=S)[nH]c2ccccc2c1=O | 32.7
28 | O=C(Nc1ccc(O)cc1)c1ccc(NC(=O)c2cccs2)cc1 | 24.2
29 | CC(=O)Nc1ccc(S(=O)(=O)NCc2ccc3c(c2)cc(C)n3C)cc1 | -18.3
30 | COc1cccc(NC(=O)N2C3CCCC2CC(NC(=O)C(C)(C)C)C3)c1 (stereo not shown) | 2.46
31 | CN(CCC(=O)Nc1ccc(Cl)cc1)Cc1ccccc1.Cl | -39.9
32 | CC1CCC(NC(=O)c2cc(S(=O)(=O)N(C)C)ccc2N2CCCC2)CC1 (stereo not shown) | 4.47
33 | CC(OC(=O)CN1C(=O)c2ccccc2C1=O)C(=O)NC1CCCC1 (stereo not shown) | -11.3
34 | CCOC(=O)N(NC(=O)C(O)(C(C)C)C(C)C)c1ccccc1 | 13.5
35 | O=c1c2c3c(sc2nc2n1CCCCC2)CCC3 | -0.34
36 | CC(C)CCC(C(=O)NC(C)c1ccccc1)C(=O)NC(C)c1ccccc1 (stereo not shown) | 15.1
37 | Cc1ccc(S(=O)(=O)/N=C2\CN(C)C(=O)N2C)cc1 | 2.81
38 | O=S(=O)(Cc1ccccc1Cl)N1CCCC1 | -2.74
39 | CCOc1ccccc1C(=O)Nc1cc2c(cc1N1CCCC1)n(CC)c(=O)n2CC | -42
40 | COc1ccc(C)cc1NC(=O)N1CCCc2ccccc21 | -12.7
41 | Cc1ccc(S(=O)(=O)N2CCN(C(=O)CCn3nc(C)c(C)c3C)CC2)cc1C | -4.21
42 | Cc1cc2nnc(SC3CCCCN(C(=O)c4ccc(F)cc4)C3=O)n2c2ccccc12 (stereo not shown) | -13.2
43 | C=CCn1c(SCC(=O)c2ccc(CNC(C)=O)o2)nc2scc(C3CC3)c2c1=O | -11.1

— article PMC4336329 (PLoS ONE, 2015)
